The results in this text go back to PMC4336329 (PLoS ONE, 2015).

SMILES strings stand for the structures. About 2,200 (0.71%) of roughly 310,000 compounds showed an effect of 50% or more. Effects have a minus sign here. The list shows a part of the results.

Chain of human ether-à-go-go-related gene (hERG) potassium channel (Q12809 whole entry, looked up): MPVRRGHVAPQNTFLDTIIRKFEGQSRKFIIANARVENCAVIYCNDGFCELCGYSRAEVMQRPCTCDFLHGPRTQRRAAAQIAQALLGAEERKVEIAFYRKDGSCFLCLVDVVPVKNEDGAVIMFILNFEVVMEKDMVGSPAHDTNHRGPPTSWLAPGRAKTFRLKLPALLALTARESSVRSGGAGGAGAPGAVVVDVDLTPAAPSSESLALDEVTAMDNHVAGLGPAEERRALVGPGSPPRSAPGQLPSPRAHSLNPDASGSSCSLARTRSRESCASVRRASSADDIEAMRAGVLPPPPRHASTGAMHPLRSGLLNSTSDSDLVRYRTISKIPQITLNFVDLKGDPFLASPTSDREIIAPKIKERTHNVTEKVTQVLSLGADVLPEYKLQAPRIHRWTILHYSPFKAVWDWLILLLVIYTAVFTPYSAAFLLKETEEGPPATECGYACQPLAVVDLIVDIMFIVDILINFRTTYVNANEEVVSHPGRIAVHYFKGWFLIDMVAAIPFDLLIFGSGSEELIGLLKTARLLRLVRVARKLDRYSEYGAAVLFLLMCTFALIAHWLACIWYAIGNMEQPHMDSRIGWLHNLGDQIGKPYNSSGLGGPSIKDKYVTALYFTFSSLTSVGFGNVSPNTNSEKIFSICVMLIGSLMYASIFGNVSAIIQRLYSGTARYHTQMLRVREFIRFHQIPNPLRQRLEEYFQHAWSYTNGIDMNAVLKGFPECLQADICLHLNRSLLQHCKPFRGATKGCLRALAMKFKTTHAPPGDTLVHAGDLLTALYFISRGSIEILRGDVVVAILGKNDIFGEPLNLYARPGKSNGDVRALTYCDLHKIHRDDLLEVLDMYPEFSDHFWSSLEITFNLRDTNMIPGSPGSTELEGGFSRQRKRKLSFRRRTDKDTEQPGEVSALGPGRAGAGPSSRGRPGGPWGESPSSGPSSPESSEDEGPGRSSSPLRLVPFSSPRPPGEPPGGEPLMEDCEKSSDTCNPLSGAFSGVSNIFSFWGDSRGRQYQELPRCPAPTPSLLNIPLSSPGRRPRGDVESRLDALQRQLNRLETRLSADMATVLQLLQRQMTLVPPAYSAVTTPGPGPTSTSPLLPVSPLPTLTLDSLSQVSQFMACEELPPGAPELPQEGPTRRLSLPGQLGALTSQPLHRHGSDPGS

This assay concerns the target human ether-à-go-go-related gene (hERG) potassium channel (human, UniProt Q12809). The assay is described as follows: primary screen, population patch clamp on CHO cells stably expressing hERG.
`COCCNC(=O)c1cn(C)c2ccc(S(=O)(=O)N(C)C3CCCCC3)cc2c1=O`: the “hERG current change (%, negative = inhibition) at 1uM” value is given as -3.35%.

Regarding `CC(=O)C1=C(O)C(=O)N(c2cc(C(C)(C)C)on2)C1c1ccc(Br)cc1` (stereo not shown), the “hERG current change (%, negative = inhibition) at 1uM” value is reported as -8.41%. As for `CCOC(=O)C1CCN(C(=O)COc2ccc3c(C)cc(=O)oc3c2)CC1`, the figure is 2.94%; as for `O=[N+]([O-])c1cccc(-c2nnc(C3CC3)o2)c1`, 11.1%; as for `CSc1nccc(Oc2cccc(C#N)c2)n1`, 0.976%.

For `Cc1cc(NC(=O)c2ccccc2)ccc1NC(=O)c1ccccc1Cl`, the “hERG current change (%, negative = inhibition) at 1uM” value is given as 14.4%. As to `CC(C)(C)c1cc(N/C=C\c2nnnn2-c2ccc(Br)cc2)no1`, the “hERG current change (%, negative = inhibition) at 1uM” value is recorded as 8.57%.

In the case of `CN(C)c1ccc(-c2c(-c3ccc4c(c3)OCO4)noc2-c2ccsc2)cn1`, the “hERG current change (%, negative = inhibition) at 1uM” value is given as 5.04%. Take `CCCCCc1nnc(N)s1`: the “hERG current change (%, negative = inhibition) at 1uM” value was determined as 0.903%. In the case of `Cc1nc(Cc2nnc(SCc3nc(N)nc(Nc4ccccc4C)n3)o2)cs1`, the “hERG current change (%, negative = inhibition) at 1uM” value is recorded as 6.84%. In the case of `Cc1cc(C)n2c(SC(C)C(=O)NC3(C#N)CCCCC3)nnc2n1` (stereo not shown), the “hERG current change (%, negative = inhibition) at 1uM” value was determined as 11.7%. In the case of `COCCCNC(=O)c1oc2ccc(S(=O)(=O)N(C)C3CCCCC3)cc2c1C`, the “hERG current change (%, negative = inhibition) at 1uM” value amounted to 9.2%. The figure for `CCOc1ccccc1NC(=O)CCCc1ccc(OC)c(C)c1` is 7.44%; for `COc1cccc(OCC(=O)Nc2ccccc2C(N)=O)c1` it is 15.2%. As to `CCOC(=O)N1CCC(NC(=O)CSc2cc(=O)n(CC)c3ccccc23)CC1`, the “hERG current change (%, negative = inhibition) at 1uM” value is given as 8.59%. As for `CCOc1ccc(C(C)C)cc1S(=O)(=O)N1CCOCC1`, the “hERG current change (%, negative = inhibition) at 1uM” value amounted to 7.34%. In the case of `COc1cccc(NC(=S)N2CCN(Cc3ccccc3)CC2)c1`, the “hERG current change (%, negative = inhibition) at 1uM” value worked out at 2.73%.

For `O=C(Nc1ccccc1)N1CCC(C(=O)N2CCCC(C(F)(F)F)C2)CC1` (stereo not shown), the “hERG current change (%, negative = inhibition) at 1uM” value is reported as 7.58%. In the case of `CCn1c(Cc2ccccc2)nnc1SCC(=O)Nc1nc(C)cs1`, the “hERG current change (%, negative = inhibition) at 1uM” value turned out to be 9.82%. In the case of `COc1ccccc1NC(=O)CCC(=O)N/N=C(/C)c1ccc(C)cc1`, the “hERG current change (%, negative = inhibition) at 1uM” value is 12%. Consider `O=C(c1cccs1)N(CCN1CCCCC1)CC1CCCN(C2CCCC2)C1` (stereo not shown), for which the “hERG current change (%, negative = inhibition) at 1uM” value was found to be 13.1%. As for `N#CCCN(C(=O)COC(=O)Cc1c[nH]c2ccccc12)c1ccccc1`, the “hERG current change (%, negative = inhibition) at 1uM” value amounted to 11.6%. As to `O=C(CN1C(=O)CSCC1=O)Nc1ccc2c(c1)OCO2`, the “hERG current change (%, negative = inhibition) at 1uM” value is recorded as 13.3%. As for `CCOC(=O)c1c(NC(=O)C2C3C=CC(CC3)C2C(=O)O)sc(C)c1C` (stereo not shown), the figure is 8.22%; as for `Cc1ccc(/C(N)=N/OC(=O)c2cc(-c3ccccc3)nc3ccccc23)cc1`, 8.25%; as for `O=C(Nc1ccc(CN2CCOCC2)cc1)c1ccc(Cl)cc1`, 9.22%. The figure for `Cc1cc(C)n2nc3ccccc3c2n1` is 14.4%; for `COC(=O)CC/C(O)=C1\C(=O)CC(C)(C)CC1=NCc1nc2ccccc2[nH]1` it is 5.35%.

Consider `CC(C)CC(Nc1ncnc2scc(-c3ccccc3)c12)C(=O)O` (stereo not shown), for which the “hERG current change (%, negative = inhibition) at 1uM” value was determined as 2.98%. As for `CN(c1cccc(Cl)c1)S(=O)(=O)c1cccc(C(=O)NCc2ccncc2)c1`, the “hERG current change (%, negative = inhibition) at 1uM” value is recorded as 6.13%. `CC1CCN(CCCNC(=O)Cn2ncc3c([nH]c4ccccc43)c2=O)CC1`: the “hERG current change (%, negative = inhibition) at 1uM” value is 11.9%.

Regarding `O=C(N/N=C/c1c(O)n(-c2ccccc2)c(=S)[nH]c1=O)c1ccccc1`, the “hERG current change (%, negative = inhibition) at 1uM” value was determined as 10.3%.

`CC(=O)NCCOC(=O)Nc1cccnc1`: the “hERG current change (%, negative = inhibition) at 1uM” value was 10.7%.

As to `Cc1ccc(-n2c(C)nnc2SCC(=O)NC2CCCC2)cc1`, the “hERG current change (%, negative = inhibition) at 1uM” value is given as 8.16%.

On to `COc1ccc(NC(=O)CC2CCCCC2)cc1OC`, for which the “hERG current change (%, negative = inhibition) at 1uM” value turned out to be 3.22%. Take `CCN(C(=O)CSc1nnc(C(C)N(C)C)n1-c1ccc(F)cc1)C1CCS(=O)(=O)C1` (stereo not shown): the “hERG current change (%, negative = inhibition) at 1uM” value turned out to be 11.5%.

With `COc1cc(S(=O)(=O)N2CCCCC2)c(OC)cc1Br`, the “hERG current change (%, negative = inhibition) at 1uM” value is 7.03%. Turning to `O=C1CCC([N+](=O)[O-])C(c2cccc([N+](=O)[O-])c2)N1` (stereo not shown), the “hERG current change (%, negative = inhibition) at 1uM” value is 9.34%.

`CCCc1cc(=O)[nH]c(SCC(=O)Nc2nonc2C)n1`: the “hERG current change (%, negative = inhibition) at 1uM” value is 7.85%.

Consider `CC(C)C(=O)N1CCN(c2ccccc2NC(=S)NC(=O)c2cccs2)CC1`, for which the “hERG current change (%, negative = inhibition) at 1uM” value stood at 0.0725%.

As to `Cc1cccnc1NC(=O)c1ccc(Cl)c(S(=O)(=O)N2CCCCCC2)c1`, the “hERG current change (%, negative = inhibition) at 1uM” value was -10.1%.

As to `CC(=O)c1sc(NC(=O)CN2C(=O)C3CCCCC3C2=O)nc1-c1ccccc1` (stereo not shown), the “hERG current change (%, negative = inhibition) at 1uM” value is 1.37%. On to `Cc1cc(Cl)ccc1OCc1cn2cccnc2n1`, for which the “hERG current change (%, negative = inhibition) at 1uM” value turned out to be 2.09%.

Turning to `Cc1nnc(NC(=O)CSc2nnc(C(C)NC(=O)c3ccccc3F)n2C)s1` (stereo not shown), the “hERG current change (%, negative = inhibition) at 1uM” value was 14.6%. With `Cc1nc(-c2ccccc2)sc1C(=O)/C=C/c1ccc(Cl)cc1`, the “hERG current change (%, negative = inhibition) at 1uM” value is reported as 13.9%. On to `Cc1nc2ccc(S(=O)(=O)NCC(=O)N3CCc4ccccc43)cc2s1`, for which the “hERG current change (%, negative = inhibition) at 1uM” value turned out to be 13.3%.

As for `O=C(NCc1ccccc1CN1CCCC1)C1CCN(C(=O)c2ccc(F)cc2)CC1`, the “hERG current change (%, negative = inhibition) at 1uM” value is given as 3.5%. Take `COc1ccc(NC(=O)CN(c2cccc(C(F)(F)F)c2)S(C)(=O)=O)cc1OC`: the “hERG current change (%, negative = inhibition) at 1uM” value is on record as 9.53%. As to `O=C(N/N=C/c1cccc(O)c1)c1ccccc1O`, the “hERG current change (%, negative = inhibition) at 1uM” value stood at 10.6%. As for `Oc1c(C=Nc2ccccc2)sc2ccccc12`, the figure is 12.4%.

Take `COc1ccc(NS(=O)(=O)c2cc(OC)ccc2OC)cc1`: the “hERG current change (%, negative = inhibition) at 1uM” value is reported as 11.8%. As to `COc1ccccc1C(=O)NCCNc1nc2cc(C)cc(C)c2cc1C#N`, the “hERG current change (%, negative = inhibition) at 1uM” value is on record as 19.5%.

As to `COc1ccc(-c2nc(NC(=O)Cn3c(=O)oc4ccccc43)sc2C)cc1`, the “hERG current change (%, negative = inhibition) at 1uM” value came to 9.56%. Turning to `Cc1nc(SCC(=O)Nc2ccnc3ccccc23)n[nH]1`, the “hERG current change (%, negative = inhibition) at 1uM” value is on record as -1.23%.

For the compound `CCc1cc(C(=O)N2CCCC(C(=O)c3cccc4ccccc34)C2)n(C)n1` (stereo not shown), the “hERG current change (%, negative = inhibition) at 1uM” value was determined as 11.7%. In the case of `COc1cccc2c1-c1c(O)cccc1C2=O`, the “hERG current change (%, negative = inhibition) at 1uM” value is on record as 10.2%.

On to `Cc1ccc(CNC(=O)CCc2nnc3ccc(NCCCN4CCCC4=O)nn23)cc1`, for which the “hERG current change (%, negative = inhibition) at 1uM” value came to 9.85%. Consider `CCC1=C(C(=O)OC)C(c2cc(OC)ccc2OC)C(C#N)=C(N)O1` (stereo not shown), for which the “hERG current change (%, negative = inhibition) at 1uM” value is 19.1%.
